Among the data in PubChem BioAssay AID463173 (ICCB-Longwood Screening Facility, Harvard Medical School, 2010) are survival values, retold here.

Each structure is given as a SMILES string. About 1,700 (3.3%) of roughly 52,000 compounds were called active. Cut-off read from the data, not from the text of the source: active = survival mostly below about 52% (no sharp cut-off); inactive = mostly above about 56%. The list shows a part of the results.

The assay concerns Wild type. As to the kind of experiment: S. aureus survival, RN4220 and DeltatarO strains – OD600, teichoic acid synthesis inhibitors, primary screen (AID 463173). The note with it: S. aureus RN4220 wild type/DeltatarO growth, OD600, 18 h, stronger effect = lower value, screened at 18.75 µg/mL (by protocol).
For `Cc1ccccc1OCC(=O)OCc1cc(=O)n2ccsc2n1`, the survival was inactive: 82%.

Regarding `CCN(CC)S(=O)(=O)c1ccc2c(c1)N(CC(=O)N1CCN(c3cccc(C(F)(F)F)c3)CC1)C(=O)CO2`, the survival is inactive: 54%.

Take `CCOC(=O)c1c(-n2cnnn2)sc(C)c1C`: the survival was inactive: 111%.

For `COc1ccc(N2CCN(C(=O)c3nc(-c4ccc(Cl)cc4)n4c3CCCCC4)CC2)cc1`, the survival was inactive: 68%. Under `Cc1ccc(Cl)cc1N1CCN(CCNC(=O)Nc2ccc(Cl)cc2)CC1` stands active: -6%; under `O=C(C1CCN(S(=O)(=O)c2cccc3nonc23)CC1)N1CCN(c2ccccc2)CC1`, inactive: 82%; under `COc1ccc(NC(=O)c2nnn(Cc3ccc(Br)cc3F)c2N)c(OC)c1`, inactive: 88%. On to `CCOc1ccc(CNC(=O)c2ccc(CS(=O)c3ccccc3)o2)cc1` (stereo not given), for which the survival is inactive: 87%. Regarding `CS(=O)(=O)N1CCc2cc(C(=O)N3CCN(c4ccc(F)cc4)CC3)ccc21`, the survival was inactive: 89%. Consider `Cc1ccc2nc(SCC(=O)N3CCCCC3)c(C#N)cc2c1`, for which the survival was inactive: 111%. As for `CC(=O)N1CCCc2ccc(NS(=O)(=O)c3ccc(F)cc3F)cc21`, the survival was inactive: 64%. As for `Cc1ccccc1NC(=O)Cn1nc(-c2ccc(F)cc2)c2cnc3ccccc3c21`, the survival is inactive: 19%. Turning to `Cc1ccc(-n2c(SCC(=O)Nc3cccc(Cl)c3)nc3n[nH]c(C)c3c2=N)cc1`, the survival was inactive: 85%. As for `Cc1ccc(N2CC(NC(=O)c3ccc4c(c3)OCO4)CC2=O)cc1` (stereo not given), the survival was inactive: 70%.

Consider `CC(C)c1ccc(Nc2c(-c3ccccc3O)nc3cnccn23)cc1`, for which the survival is inactive: 61%. For `Cc1cc(N2CCC(C)CC2)nc2ccc(NC(=O)/C=C/c3cccc(Cl)c3)cc12`, the survival is inactive: 69%.

On to `CCOc1ccc(-c2c(C)nn3c(C)c(C(=O)NCc4ccc(C)o4)cnc23)cc1OCC`, for which the survival was inactive: 90%.

As for `O=C(NCCc1ccc(Cl)cc1)c1ccc(CS(=O)(=O)Cc2ccccc2F)o1`, the survival is active: -3%. `CC(=O)N1CCc2c(sc3c2c(=O)n(-c2ccc(C)cc2)c(=O)n3CC(=O)Nc2ccccc2)C1`: the survival was inactive: 122%. For `Cn1c(Oc2ccc(F)cc2)nc2c1c(=O)n(Cc1ccccc1Cl)c(=O)n2C`, the survival is inactive: 78%. Under `Cc1ccc2nc(NC(=O)c3cc(=O)c4cc(Cl)ccc4o3)sc2c1` stands inactive: 76%; under `CCc1ccccc1NC(=O)CSc1nnc(CC)c(CC)n1`, inactive: 74%. `CSc1ccc(CNC(=O)c2cc3c(=O)n(Cc4ccco4)ccc3nc2C)cc1`: the survival is inactive: 128%.

Consider `COc1ccccc1NC(=O)c1c(NC(=O)c2ccccc2F)sc2c1CCC2`, for which the survival was inactive: 115%. As for `COc1ccc(C(c2nnnn2CC2CCCO2)N2CCN(c3ccc(F)cc3)CC2)cc1OC` (stereo not given), the survival was inactive: 100%.
